Assay results: publication PMC11103505, “AXL-specific single domain antibodies show diagnostic potential and anti-tumor activity in Acute Myeloid Leukemia” (Theranostics, 2024)

Biological target: T1, sdAb20 fused to a mouse IgG2a-Fc tail
T1 construct: as the VHH of m1; The His6 tag of sdAb20 was replaced by the mIgG2a-Fc region; Size about 80 kDa; also called sdAb20-Fc; Fc-coupled sdAb20; source: bought: ImmunoPrecise Antibodies; not shown: Fc (mouse IgG2a), C-terminal, kept
Test: flow cytometry on cells; sdAb20 or sdAb20-Fc on AXL-expressing human and murine cancer cell lines, compared with the irrelevant control R3B23 or R3B23-Fc; read-out MFI
Conditions: one partner purified

T1 sequence (P30530 26-894): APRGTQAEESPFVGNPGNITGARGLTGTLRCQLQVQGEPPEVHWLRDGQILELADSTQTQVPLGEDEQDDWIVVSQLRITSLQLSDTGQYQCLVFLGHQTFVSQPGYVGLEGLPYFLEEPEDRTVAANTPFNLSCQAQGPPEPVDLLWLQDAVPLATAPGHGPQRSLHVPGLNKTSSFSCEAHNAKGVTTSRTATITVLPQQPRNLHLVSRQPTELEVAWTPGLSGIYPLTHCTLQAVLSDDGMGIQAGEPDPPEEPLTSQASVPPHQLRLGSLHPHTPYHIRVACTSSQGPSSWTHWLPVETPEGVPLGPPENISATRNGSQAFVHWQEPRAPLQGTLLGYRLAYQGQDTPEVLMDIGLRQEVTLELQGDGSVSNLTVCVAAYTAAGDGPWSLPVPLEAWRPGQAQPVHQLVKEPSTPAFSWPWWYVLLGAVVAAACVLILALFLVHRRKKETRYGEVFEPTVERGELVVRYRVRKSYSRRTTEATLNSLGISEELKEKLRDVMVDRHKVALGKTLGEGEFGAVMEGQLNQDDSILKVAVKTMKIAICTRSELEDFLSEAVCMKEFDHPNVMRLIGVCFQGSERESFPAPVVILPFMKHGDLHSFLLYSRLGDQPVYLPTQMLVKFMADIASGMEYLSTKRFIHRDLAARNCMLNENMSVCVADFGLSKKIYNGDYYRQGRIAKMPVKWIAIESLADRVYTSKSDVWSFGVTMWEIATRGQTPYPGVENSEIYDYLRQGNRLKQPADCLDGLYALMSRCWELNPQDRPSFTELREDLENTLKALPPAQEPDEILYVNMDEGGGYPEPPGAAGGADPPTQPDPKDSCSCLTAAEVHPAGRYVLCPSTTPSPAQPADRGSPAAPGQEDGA

binding result: binds
B1: human AXL on AXL^+ human cancer cell lines (receptor)
chain: not shown
notes: receptor tyrosine kinase AXL, human, on the surface of AXL-positive cell lines; also called AXL receptor; source: endogenous, on THP-1, MOLM-13, MV-4-11, A549 and HCT-116 cells
